# Source: PubChem BioAssay AID504845 (National Center for Advancing Translational Sciences (NCATS), 2011)
# Several values for one entry are separate records, joined by “and”; a condition that tells them apart may be missing. Equal entries are not always repeated. The whole screen tested about 390,000 compounds, of which about 150 (0.038%) were called active. The inconclusive results got no clear call from the source; some entries with a clear call stand among them for comparison. Calls come from the whole dose curve; as a rule, active = well fitted inhibition curve with a large enough effect; inconclusive = small, poorly fitted or top-dose-only effect; inactive = no such curve, though single readings can be large or run the other way. A potency beside an inconclusive call is a rough fit, not a confirmed value.
# Molecular target: Regulator of G-protein signaling 4 (Homo sapiens) (UniProt P49798)
# Sequence of UniProt P49798 (P49798 whole entry, looked up): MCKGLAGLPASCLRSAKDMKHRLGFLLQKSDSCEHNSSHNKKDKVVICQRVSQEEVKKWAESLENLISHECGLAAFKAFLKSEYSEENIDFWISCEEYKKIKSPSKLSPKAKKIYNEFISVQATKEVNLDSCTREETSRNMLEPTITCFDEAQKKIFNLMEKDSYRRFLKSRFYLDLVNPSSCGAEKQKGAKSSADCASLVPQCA
# Assay: Inhibitors of Regulator of G Protein Signaling (RGS) 4: qHTS; note: nearly all actives have a fitted effect of over 75% in size
# Settings: Transcreener GDP fluorescence polarization, RGS4-accelerated GTP hydrolysis; series mostly up to 114 µM; activity change, negative = inhibition: at the top concentration
# Procedure, shortened: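 MLSMR compounds (23 nl, pin-transferred) preincubated 10 min at room temperature with a 500nM (2x) first reagent, then RGS4 at 900nM (2x) plus Transcreener GDP mix added; fluorescence polarization (620/688 nm) read before and after 90 min at 30 °C.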
# % is set by controls: 0 for no effect and ±100 for the full control effect; potency is the fitted concentration of half-maximal effect; tags give direction and shape of the fitted curve.
Structure (SMILES),Potency,"activity change, negative = inhibition"
CCOc1cccc(CNc2ccc(O)cc2)c1OCc1ccccc1Cl,"inconclusive: 17.8 µM [inhibitor, full curve, poor fit] and inconclusive: 79.4 µM [inhibitor, partial curve, poor fit]",
CC1CCCN(C(=O)c2cc(-c3ccco3)nc3ccccc23)C1 (stereo unspecified),"inconclusive: 31.6 µM [inhibitor, full curve, poor fit]",
Cc1ccccc1OCC(=O)N/N=C1\SCC(=O)N1Cc1ccccc1,"inconclusive: 79.4 µM [inhibitor, partial curve, poor fit]",
CCCc1nc2ccccc2c(=O)n1/N=C/c1c(C)[nH]n(-c2ccc(C)cc2)c1=O,"inconclusive: 89.1 µM [inhibitor, single point]",
CC(/C=C/c1ccccc1F)=N\NC(=O)c1ccc(Cl)cc1,"inconclusive: 17.8 µM [inhibitor, full curve, poor fit]",
COC(=O)c1c(NC(=O)COc2cc(C)c(Cl)c(C)c2)sc2c1CCCC2,"inconclusive: 79.4 µM [inhibitor, partial curve, poor fit]",
C/C(O)=C(\N=Nc1cc(C)ccc1O)C(N)=O,"inconclusive: 79.4 µM [inhibitor, partial curve, poor fit]",
CC(=O)/C(=N\Nc1cccc(Cl)c1)Sc1cccc2cccnc12,,inactive: -0.414%
N#CC1=C2SCN(c3ccccc3)CN2C(=O)CC1c1cccs1 (stereo unspecified),"inconclusive: 50.1 µM [inhibitor, partial curve, poor fit]",
O=C(COC(=O)/C=C/c1ccc(Br)o1)NC1CCCCC1,"inconclusive: 17.8 µM [inhibitor, full curve, poor fit]",
COc1ccc(C[C@H]2CN3C(=NC[C@H]3C)N2CCNC(=O)c2ccc(C)c(Br)c2)cc1,,inactive: -28.3%
CN1CCc2c(sc(NC(=O)c3cc(Cl)sc3Cl)c2C(N)=O)C1,"inconclusive: 17.8 µM [inhibitor, full curve, poor fit]",
CCOC(=O)C(=CNNc1ccccc1)C(=O)OCC,"inconclusive: 44.7 µM [inhibitor, partial curve, poor fit]",
O=C(O)c1ccc(NC(=S)NC(=O)c2cncc(Br)c2)cc1,"inconclusive: 50.1 µM [inhibitor, partial curve, poor fit]",
NC(=O)Cn1c(=O)n(Cc2ccco2)c(=O)c2c3c(sc21)CCCCC3,"inconclusive: 50.1 µM [inhibitor, partial curve, poor fit]",
O=C(Nc1cccc(-c2nc3ncccc3o2)c1)c1ccc2c(c1)OCO2,"inconclusive: 100 µM [inhibitor, single point]",
O=S(=O)([O-])CCC[n+]1c(SCCCS(=O)(=O)O)sc2ccc(Cl)cc21,"inconclusive: 44.7 µM [inhibitor, partial curve, poor fit]",
C#CCOCCOCCOCCNc1nc(N2CCOCC2)nc(N2CCN(C(=O)[C@H](Cc3ccc(O)cc3)n3cc([C@@H](N)C(C)CC)nn3)CC2)n1 (stereo partly specified),"inconclusive: 89.1 µM [inhibitor, single point]",

Structure (SMILES),Potency,"activity change, negative = inhibition"
COC(=O)c1ccc(Cn2nc(C)cc2C)cc1,"inconclusive: 50.1 µM [inhibitor, partial curve, poor fit]",
CN(C)S(=O)(=O)c1cccc(-c2nnc(-c3ccccc3)o2)c1,,inactive: -41.4%
Cc1ccc(NS(=O)(=O)c2cc([N+](=O)[O-])ccc2NNC(=S)Nc2cccc(Cl)c2)c(C)c1,"inconclusive: 50.1 µM [inhibitor, partial curve, poor fit]",
COc1cc(NS(=O)(=O)c2ccc(N/C=C(\C=O)c3nc4cc(Cl)ccc4o3)cc2)nc(OC)n1,"inconclusive: 89.1 µM [inhibitor, single point]",
CCOC(=O)c1ccc(NC(=O)c2c(NCc3sccc3C)sc3c2CCCCC3)cc1,"inconclusive: 79.4 µM [inhibitor, partial curve, poor fit]",
COc1ccc(C(=O)Nc2nc3ccccc3[nH]2)cc1,,inactive: 8.85%
O=c1[nH]c(-c2ccccc2)nc2sc(-c3ccccc3)cc12,"inconclusive: 89.1 µM [inhibitor, single point]",
Cc1ccc(C(=O)Nc2ccc(C(=O)OCc3cc(=O)n4ccsc4n3)cc2)cc1,"inconclusive: 100 µM [inhibitor, single point]",
O=C(O)CCCCCN1C(=O)/C(=C/c2cn(-c3ccccc3)nc2-c2cccs2)SC1=S,"inconclusive: 50.1 µM [inhibitor, partial curve, poor fit]",
CCOc1ccccc1N1C(=O)CC(Sc2n[nH]c(-c3ccccc3)n2)C1=O (stereo unspecified),"inconclusive: 31.6 µM [inhibitor, full curve, poor fit]",
CCC(C)(C)NC(=O)C(c1ccc(C)cc1)N(CCN1CCOCC1)C(=O)CNC(=O)c1cccs1 (stereo unspecified),"inconclusive: 89.1 µM [inhibitor, partial curve, poor fit]",
NC(=O)c1sc2nc3c(c(-c4cccs4)c2c1N)CCCCC3,"inconclusive: 89.1 µM [inhibitor, single point]",
C#CCOCCOCCOCCNc1nc(N2CCN(C(=O)CCCCCCCCCCNC(=O)[C@H](CCCCN)n3cc(C[C@@H](C)CC)nn3)CC2)nc(N2CCN(C(=O)CCCCCCCCCCNC(=O)[C@H](CCCN=C(N)N)n3cc(C[C@@H](C)CC)nn3)CC2)n1,"inconclusive: 28.2 µM [inhibitor, full curve, poor fit]",
c1ccc(-c2ccc3[nH]ccc3c2)cc1,,inactive: 19.9%
CC1(C)CC(=O)C(=Cc2cn(CCC#N)nc2-c2ccc(F)cc2)C(=O)C1,"inconclusive: 44.7 µM [inhibitor, partial curve, poor fit]",
Cc1ccc(NC(=O)c2sc(=S)n(-c3cc(C)ccc3F)c2N)cc1,"inconclusive: 100 µM [inhibitor, single point]",
Cc1ccc(C(c2c(C)[nH][nH]c2=O)c2c(C)[nH][nH]c2=O)cc1,"inconclusive: 31.6 µM [inhibitor, full curve, poor fit]",
Clc1cccc(CNc2nnnn2-c2ccccc2)c1,,inactive: -1.05%
